# Values joined by “and” are separate entries in the source; they are usually repeats but may differ in a detail not shown here. Equal values may be shown once. The shares of active, inactive and inconclusive entries below differ from those in the screen. A potency beside an inconclusive call is a rough fit, not a confirmed value. A structure can be active in one record and inactive in another. Active and inactive are the calls of the source. The call rests on the fitted dose curve; in most records, active means well fitted cell-killing curve with a large enough effect in the repeat runs; inconclusive means weak or mixed curves; inactive means no such curve, though single readings can be large or run the other way.
# Assay: qHTS assay to identify small molecule antagonists of the androgen receptor (AR) signaling pathway - cell viability counter screen (AID 743033; further: nearly all actives have a fitted effect of over 45% in size)
# Details: AR-bla HEK293 viability, CellTiter-Glo luminescence, 16 h; series mostly up to 58.5 µM
# Description: National Center for Advancing Translational Sciences [NCATS]
# NIH Chemical Genomics Center [NCGC]
# U.S. Environmental Protection Agency [EPA]
# National Institutes of Environmental Health Sciences [NIEHS]
# National Toxicology Program [NTP]
# U.S. Food and Drug Administration [FDA]
# Androgen receptor (AR), a nuclear hormone receptor, plays a critical role in AR-dependent prostate cancer and other androgen related diseases. Endocrine disrupting chemicals (EDCs) and their interactions with steroid hormone receptors like AR may cause disruption of normal endocrine function as well as interfere with metabolic homeostasis, reproduction, developmental and behavioral functions. To identify the compounds that inhibit AR signaling, GeneBLAzer AR-UAS-bla-GripTite cell line (Invitrogen, Carlsbad, CA, USA) containing a beta-lactamase reporter gene under control of an Upstream Activator Sequence (UAS) stably integrated into HEK293 cells was used to screen the Tox21 10K compound library. The cytotoxicity of the Tox21 compound library against the AR-bla cell line was tested in parallel by measuring the cell viability using CellTiter-Glo assay in the same wells.
# Tox21 Assay Protocol Summary:
# AR-bla cells were dispensed at 2,000 cells/5 uL of assay medium per well into black wall/clear-bottom 1536-well plates using a Multidrop Combi (ThermoFisher Scientific, Waltham, MA) dispenser. After the assay plates were incubated at a 37C and 5% CO2 for 4 hr, 23 nL of compounds dissolved in DMSO, positive controls or DMSO only was transferred to the assay plate by a Pintool station (Kalypsys, San Diego, CA), followed by addition of 1 uL of agonist (R1881) in culture medium using a Bioraptr Flying Reagent Dispenser (FRD) workstation (Beckman Coulter, Indianapolis, IN, USA). The plates were incubated at a 37C and 5% CO2 for 16 h. After 1 uL of LiveBLAzerTM B/G FRET substrate was added using a Bioraptr FRD, the plates were incubated at room temperature for 2 h and fluorescence intensity was measured by an Envision plate reader (PerkinElmer, Shelton, CT). For cell viability readout that measures cytotoxicity, 4 ul/well of CellTiter-Glo reagent was added into the assay plates using a Bioraptr FRD. After 30 min incubation at room temperature, the luminescence intensity in the plates was measured using a ViewLux (PerkinElmer) plate reader.
# On the % scale 0 is the no-effect control and ±100 the full control effect; potency means the concentration at half of the fitted maximal effect; tags describe the fitted curve by direction and shape.
row,Compound,Potency
1,O=S(=O)(O)C(F)(F)C(F)(F)C(F)(F)C(F)(F)C(F)(F)C(F)(F)C(F)(F)C(F)(F)F,"inconclusive: 21.9 µM [cytotoxic, partial curve, poor fit]"
2,CCC(C)(NC(=O)c1cc(Cl)c(C)c(Cl)c1)C(=O)CCl (stereo not given),active: 24.7 µM
3,O=C(O)CCCCCCNC1c2ccccc2CCc2ccccc21,inactive
4,CC1(C)CC/C(=C/c2ccc(Cl)cc2)C1(O)Cn1cncn1 (stereo not given),inconclusive: 54.6 µM [cytotoxic]
5,CCCCC(C#N)(Cn1cncn1)c1ccc(Cl)cc1 (stereo not given),"inconclusive: 48.8 µM [cytotoxic, partial curve, poor fit]"
6,COC(C)(C)C,inactive
7,CC(=O)[O-].CC(=O)[O-].[Hg+2],active: 11 µM
8,Oc1c(Cl)c(Cl)cc(Cl)c1Cl,"inconclusive: 26.8 µM [cytotoxic, full curve]"
9,CCC(Cl)CCl (stereo not given),inactive
10,COP(=S)(OC)Oc1ccc(Sc2ccc(OP(=S)(OC)OC)cc2)cc1,"inconclusive: 12 nM [cytotoxic, full curve, poor fit] and inconclusive: 38.9 µM [cytotoxic, partial curve, poor fit]"
11,CCN(CC)C(=O)C(C)Oc1cccc2ccccc12 (stereo not given),"inconclusive: 62.2 µM [cytotoxic, partial curve, poor fit] and inconclusive: 54.9 µM [cytotoxic, partial curve]"
12,C=CCOC(Cn1ccnc1)c1ccc(Cl)cc1Cl (stereo not given),"active: 49.1 µM and inconclusive: 49 µM [cytotoxic, partial curve]"
13,OCC1CO1 (stereo not given),inactive
14,CC(=O)[O-].CC(=O)[O-].O.O.O.[Pb+2],inactive
15,CC1(C)[C@H](C=C(Cl)Cl)[C@@H]1C(=O)O[C@@H](C#N)c1cccc(Oc2ccccc2)c1,inactive
16,O=C(CCN1CC1)OCC(CO)(COC(=O)CCN1CC1)COC(=O)CCN1CC1,inactive
17,CC(C)(C)c1cc([N+](=O)[O-])cc([N+](=O)[O-])c1O,active: 13.8 µM
18,CCOP(=O)(O)OCC (tested in a mixture with another compound),active: 17.2 µM
19,CS/C(C)=N/OC(=O)N(C)SN(C)C(=O)O/N=C(\C)SC,"inconclusive: 15.5 µM [cytotoxic, partial curve, poor fit]"
20,CCN(CC)C(=S)[S-].CCN(CC)C(=S)[S-].[Zn+2],active: 0.344 µM

row,Compound,Potency
1,C[C@@H]1CC[C@H]2[C@@H](C)C(=O)O[C@@H]3O[C@@]4(C)CC[C@@H]1[C@]32OO4,"inconclusive: 2.13 µM [cytotoxic, full curve]"
2,O=S(=O)(c1ccc(Cl)cc1)c1ccc(Cl)cc1,"inconclusive: 55.6 µM [cytotoxic, partial curve, poor fit]"
3,Nc1ccccc1C(=O)OC/C=C/c1ccccc1,"inconclusive: 55.1 µM [cytotoxic, partial curve, poor fit]"
4,BrC(Br)C(Br)(Br)Br,"inconclusive: 24.7 µM [cytotoxic, partial curve]"
5,CCCC(Cn1cncn1)c1ccc(Cl)cc1Cl (stereo not given),"inconclusive: 43.6 µM [cytotoxic, partial curve]"
6,COc1ccc(N)cc1N,active: 16 µM and active: 18.7 µM
7,c1ccc2sc(SNC3CCCCC3)nc2c1,"inconclusive: 61.6 µM [cytotoxic, partial curve, poor fit]"
8,CC(C)(C)C(O)(CCc1ccc(Cl)cc1)Cn1cncn1 (stereo not given),"inconclusive: 49.6 µM [cytotoxic, partial curve, poor fit] and inconclusive: 49 µM [cytotoxic, partial curve, poor fit]"
9,COC(C)(C)CCC[C@H](C)C/C=C/C(C)=C/C(=O)OC(C)C,"inconclusive: 54.9 µM [cytotoxic, partial curve, poor fit]"
10,CCCCCCCCCCCCCCCC[n+]1ccccc1,active: 19.2 µM [middle of 4 runs]
11,C[C@]12C=CC(=O)C=C1CC[C@@H]1[C@@H]2CC[C@@]2(C)[C@H]1CC[C@]2(C)O,inactive
12,COc1cc(OC)nc(NC(=O)NS(=O)(=O)c2ncccc2OCC(F)(F)F)n1,inactive
13,N#Cc1nn(-c2c(Cl)cc(C(F)(F)F)cc2Cl)c(N)c1S(=O)C(F)(F)F (stereo not given),inconclusive: 23.9 µM [cytotoxic] and active: 15.6 µM
14,Clc1ccc(Cl)cc1,"inconclusive: 30.1 µM [rising, single point]"
15,O=C(NC(=O)c1c(F)cccc1F)Nc1ccc(OC(F)(F)C(F)OC(F)(F)F)c(Cl)c1 (stereo not given),inactive
16,Nc1ccc(-c2ccccc2)cc1,inactive
17,O=C(O)C(Cl)(Cl)Cl,inactive
18,c1coc(-c2nc3ccccc3[nH]2)c1,"inconclusive: 24.5 µM [cytotoxic, full curve, poor fit]"
19,COc1nn(C(=O)NS(=O)(=O)c2ccccc2OC(F)(F)F)c(=O)n1C,inactive
20,Cc1cc(Cl)ccc1N,"inconclusive: 75.9 µM [cytotoxic, single point]"
